{"source": "PubChem BioAssay AID686978", "about": "(National Center for Advancing Translational Sciences (NCATS), 2013)", "note": "About 64,000 (15%) of roughly 420,000 compounds were called active. Inconclusive results, whose numbers are uncertain, are shown with a selection of clear calls. The call rests on the fitted dose curve; in most records, active means well fitted inhibition curve with a large enough effect; inconclusive means small, poorly fitted or top-dose-only effect; inactive means flat fitted curve, though single readings scatter. Potencies of inconclusive entries are left out as doubtful fits. On the % scale 0 is the no-effect control and ±100 the full control effect; potency means the concentration at half of the fitted maximal effect; tags describe the fitted curve by direction and shape.", "data": [{"assay": "qHTS for Inhibitors of human tyrosyl-DNA phosphodiesterase 1 (TDP1): qHTS in cells in absence of CPT; further: nearly all actives have a fitted effect of over 55% in size", "conditions": "DT40 Tdp1-/- hTDP1 cells, no CPT, ATP luminescence, 48 h; activity change, negative = growth inhibition: at 46.2 µM (top of the series) unless noted", "summary_of_the_method": "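Compound effects on proliferation are scored in DT40 Tdp1-/-;hTDP1 cells in the absence of CPT. ATP levels (CellTiter-Glo luminescence) are recorded after a ≥48 hr, 37 °C incubation.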", "values": [{"molecule": "Cc1ccccc1CSc1ncnc2ccccc12", "Potency": "inconclusive [inhibitor, single point]"}, {"molecule": "O=C(O/N=C(/c1ccccc1)c1ccncc1)c1ccccc1[N+](=O)[O-]", "activity change, negative = growth inhibition": "inactive: -19.9%"}, {"molecule": "COc1ccc(NC(=O)CN(C)CC(=O)Nc2sc3c(c2C(N)=O)CCC3)cc1", "Potency": "inconclusive [inhibitor, single point]"}, {"molecule": "O=c1ccn(-c2cccc(C(F)(F)F)c2)nc1-c1ccn(-c2cccc(Cl)c2)n1", "Potency": "inconclusive [inhibitor, single point]"}, {"molecule": "CC(=O)OCC1OC(n2c(Br)nc3c(=O)[nH]c(N)nc32)C(OC(C)=O)C1OC(C)=O", "note": "(stereo not drawn)", "activity change, negative = growth inhibition": "inactive: 22.2%"}, {"molecule": "CC(C)c1nc2sc3c(c2c(=O)n1N)CC(C)(C)OC3", "Potency": "inconclusive [inhibitor, single point]"}, {"molecule": "CCc1ccccc1NC(=S)N(CCOC)C(C)c1ccco1", "note": "(stereo not drawn)", "Potency": "inconclusive [inhibitor, single point]"}, {"molecule": "COC(=O)c1cc2oc3ccccc3c2n1CC(=O)Nc1ccc(C)c(F)c1", "Potency": "inconclusive [inhibitor, single point]"}, {"molecule": "CCC1=Nc2cc(C(=O)NCCN3CCOCC3)ccc2Sc2ccc(Br)cc21", "activity change, negative = growth inhibition": "inactive: 1.16%"}, {"molecule": "O=C(CSc1ncn[nH]1)Nc1ccccc1C(=O)O", "activity change, negative = growth inhibition": "inactive: -2.52%"}, {"molecule": "O=C(CNC(=O)c1ccc(S(=O)(=O)N2CCCC2)cc1)N/N=C/c1ccc(F)cc1", "Potency": "inconclusive [inhibitor, single point]"}, {"molecule": "COC(=O)/C(=N/Nc1ccc(C)cc1)N1CCCc2ccccc21", "Potency": "inconclusive [inhibitor, single point]"}, {"molecule": "COC(=O)CCN(C(=O)c1ccc(N2CCCCC2)c([N+](=O)[O-])c1)c1ccccn1", "Potency": "inconclusive [inhibitor, partial curve]"}, {"molecule": "CCOc1ccc(NC(=O)Cn2c(=O)n(-c3cccc(Cl)c3)c(=O)c3c2c2cc(C)ccc2n3C)cc1", "activity change, negative = growth inhibition": "inactive: 0.902%"}, {"molecule": "Cc1ccc(Sc2c(CO)c(-c3ccccc3)nn2C)cc1", "Potency": "active: 0.731 µM"}, {"molecule": "COc1ccc(S(=O)(=O)Nc2cccc(-c3ccc(N4CCC(C)CC4)nn3)c2)c(OC)c1", "Potency": "inconclusive [inhibitor, single point]"}, {"molecule": "COc1ccc(NS(=O)(=O)c2ccc(NC(=O)c3ccccc3)cc2)nn1", "Potency": "inconclusive [inhibitor, single point]"}, {"molecule": "Cn1c(SCC(=O)N2CCCCC2)nc2c([nH]c3ccccc32)c1=O", "Potency": "inconclusive [inhibitor, partial curve]"}, {"molecule": "COc1cc(NC(=O)c2ccc3oc(=O)c(S(=O)(=O)c4ccccc4)cc3c2)cc(OC)c1", "activity change, negative = growth inhibition": "inactive: -7.21%"}, {"molecule": "COc1ccc(CSCC(=O)Nc2ccccc2SC)cc1", "Potency": "inconclusive [inhibitor, partial curve, poor fit]"}, {"molecule": "Cc1nn(Cc2c(F)c(F)c(F)c(F)c2F)c(C)c1NC(=O)c1c([N+](=O)[O-])cnn1C", "Potency": "active: 11.6 µM"}, {"molecule": "COc1ccccc1N(CC(=O)N1CCCC1)S(=O)(=O)c1cc([N+](=O)[O-])ccc1Cl", "Potency": "inconclusive [inhibitor, single point]"}, {"molecule": "O=c1[nH]c(=O)n(-c2ccccc2)c2c1C(C(F)(F)F)(C(F)(F)F)N=C(CCC1CCCCC1)N2", "Potency": "active: 18.4 µM"}, {"molecule": "Clc1ccc2oc3c(Cl)ncnc3c2c1", "Potency": "active: 6.51 µM"}, {"molecule": "COc1ccc2nc(SCC(=O)NCC(F)(F)F)[nH]c2c1", "activity change, negative = growth inhibition": "inactive: 10.8%"}, {"molecule": "COc1ccccc1NC(=S)NCc1ccc2c(c1)OCO2", "Potency": "inconclusive [inhibitor, partial curve]"}, {"molecule": "CCOC(=O)CNC(=O)CSc1nc(-c2cccc(C)c2)ns1", "Potency": "inconclusive [inhibitor, single point]"}, {"molecule": "CC(=O)O/N=C/c1c(Cl)n(C)c2ccccc12", "activity change, negative = growth inhibition": "inactive: -11.1%"}, {"molecule": "COc1cc(/C=N/NC(=O)c2cc(-c3ccccc3C)nc3ccccc23)cc(OC)c1O", "Potency": "active: 6.51 µM"}, {"molecule": "CCOc1cccc(C2c3[nH]c4ccccc4c3CCN2C(=O)CSc2ccccc2)c1", "note": "(stereo not drawn)", "Potency": "inconclusive [inhibitor, single point]"}, {"molecule": "COC(=O)c1cc2ccccn2c2c(C(=O)OC)c(C(=O)OC)cc1-2", "Potency": "inconclusive [inhibitor, partial curve]"}, {"molecule": "O=c1[nH]c(CSc2nnnn2-c2ccc(Cl)cc2)nc2ccccc12", "Potency": "inconclusive [inhibitor, single point]"}, {"molecule": "NC(=O)c1cc([N+](=O)[O-])ccc1NCc1ccc(O)cc1", "Potency": "inconclusive [inhibitor, single point]"}, {"molecule": "COc1ccc(/C=C(/NC(=O)c2ccccc2OC)C(=O)Nc2ccc(C(=O)O)cc2)cc1", "activity change, negative = growth inhibition": "inactive: -5.73%"}, {"molecule": "COc1ccc(NC(=O)Cn2c(=O)n(CCc3ccccc3)c(=O)c3c4c(sc32)CCCC4)cc1", "Potency": "inconclusive [inhibitor, single point]"}, {"molecule": "CCN(CC)S(=O)(=O)c1cccc(C(=O)N[C@H](C(=O)Nc2nc3ccccc3s2)C(C)C)c1", "Potency": "active: 14.6 µM"}, {"molecule": "COc1cc(OC)cc(C(=O)NCC(=O)Nc2ccc(-c3ccccc3)cc2)c1", "Potency": "active: 18.4 µM"}, {"molecule": "Cc1cccc(C(=O)O/N=C(\\N)c2ccc(Br)cc2)c1", "activity change, negative = growth inhibition": "inactive: -8.75%"}, {"molecule": "O=C(c1cc(-c2ccc(Cl)cc2)on1)N1CCOCC1", "activity change, negative = growth inhibition": "inactive: 0.0571%"}, {"molecule": "N#Cc1c(C#N)c(-c2ccccc2)n(-c2ccccc2)c1N", "Potency": "active: 11.6 µM"}, {"molecule": "CCN(Cc1ccccc1)c1cc2c(c3c1ccn3C)C1CCC2O1", "note": "(stereo not drawn)", "Potency": "inconclusive [inhibitor, single point]"}, {"molecule": "CCc1ccc(S(=O)(=O)NC(=S)Nc2ccccc2)cc1", "Potency": "inconclusive [inhibitor, partial curve, poor fit]"}, {"molecule": "COC(=O)c1ccc(CSc2nnnn2-c2ccccc2)o1", "activity change, negative = growth inhibition": "inactive: -21.9%"}, {"molecule": "CC(C)c1ccc(NC(=O)C2CCN(S(=O)(=O)c3cccc4nonc34)CC2)cc1", "activity change, negative = growth inhibition": "inactive: -24%"}, {"molecule": "CSc1ccc(CNC(=O)C2(C)CCCN2CC(C)C)cc1", "note": "(stereo not drawn)", "Potency": "active: 16.4 µM"}, {"molecule": "Cc1ccccc1NC(=O)c1sc2nc3c(c(-c4ccco4)c2c1N)CCCC3", "Potency": "inconclusive [inhibitor, single point]"}, {"molecule": "COc1ccc(CN(C)C(=O)Cn2ccc(N)nc2=O)cc1OC", "activity change, negative = growth inhibition": "inactive: -10.9%"}, {"molecule": "CCOC(=O)N1C2c3ccccc3C(c3ccccc32)N1C(=O)OCC", "Potency": "inconclusive [inhibitor, partial curve]"}, {"molecule": "Cc1ccc(OCc2nc(C#N)c(N3CCN(Cc4ccccc4)CC3)o2)cc1", "Potency": "inconclusive [inhibitor, single point]"}, {"molecule": "CCCN(C(=O)CCOc1ccc(C(C)(C)C)cc1)c1c(N)n(Cc2ccccc2)c(=O)[nH]c1=O", "Potency": "inconclusive [inhibitor, single point]"}, {"molecule": "NC(=O)C1CCN(C(c2ccccc2)c2nnnn2C2CCCC2)CC1", "note": "(stereo not drawn)", "activity change, negative = growth inhibition": "inactive: -14.9%"}, {"molecule": "O=C(O)CCCn1cc(NC(=O)COc2ccc([N+](=O)[O-])cc2)cn1", "activity change, negative = growth inhibition": "inactive: -9.13%"}, {"molecule": "COc1cc2c(=O)c(C(=O)c3ccc(C)c(C)c3)cn(Cc3ccc(F)cc3)c2cc1OC", "Potency": "active: 18.4 µM"}, {"molecule": "CC1CCN(CCCCOc2cccc(Br)c2)CC1", "Potency": "inconclusive [inhibitor, single point]"}, {"molecule": "O=c1/c(=C\\c2cccn2-c2ccccc2)sc2nc3ccccc3n12", "Potency": "inconclusive [inhibitor, single point]"}, {"molecule": "C=CCn1c(=NC(=O)CC)n(C)c2ccccc21", "activity change, negative = growth inhibition": "inactive: -0.385%"}, {"molecule": "CCN(CC)S(=O)(=O)c1ccc2oc(Nc3ccc4c(c3)OCCO4)nc2c1", "Potency": "active: 23.1 µM"}, {"molecule": "Cc1ccccc1NC(=O)CSc1cn(CC(=O)N2CCCCCC2)c2ccccc12", "Potency": "inconclusive [inhibitor, single point]"}, {"molecule": "Cc1cccc(NC(=O)C2CCCN(C(=O)Nc3ccc(F)cc3)C2)c1C", "note": "(stereo not drawn)", "activity change, negative = growth inhibition": "inactive: -19%"}, {"molecule": "CCC(CC)c1nn2c(=O)cc(COc3ccc(NC(=O)c4ccccc4C)cc3)nc2s1", "Potency": "active: 2.31 µM"}, {"molecule": "CC(C)COc1ccc(C(=O)N2C(=O)c3ccc(N)cc3C2=O)cc1", "activity change, negative = growth inhibition": "inactive: -14.7%"}, {"molecule": "O=C(Cc1ccc(Cl)cc1)NCCCNC(=O)c1cccnc1", "activity change, negative = growth inhibition": "inactive: -12.3%"}, {"molecule": "O=C(NC(=S)Nc1ccc2c(c1)OCCO2)c1ccccc1", "Potency": "active: 14.1 µM"}, {"molecule": "COc1ccc(-c2nnc(N(C)C(=O)C3CCCO3)s2)cc1", "note": "(stereo not drawn)", "Potency": "inconclusive [inhibitor, partial curve]"}, {"molecule": "Cc1ccc(S(=O)(=O)NCC(=O)NCC(=O)N(C)Cc2ccc(Br)s2)cc1C", "Potency": "inconclusive [inhibitor, partial curve, poor fit]"}, {"molecule": "CS(=O)(=O)N1CCC[C@@]2(CCN(C(c3ccccc3)c3ccccc3)C2)C1", "Potency": "inconclusive [inhibitor, single point]"}, {"molecule": "CCNC(=O)C(=O)NCC(c1cccs1)S(=O)(=O)c1ccc(C)cc1", "note": "(stereo not drawn)", "activity change, negative = growth inhibition": "inactive: 1.62%"}, {"molecule": "O=C(COc1ccc(Cl)cc1Cl)Nc1ccc(-c2ccc(N3CCOCC3)nn2)cc1", "Potency": "inconclusive [inhibitor, partial curve]"}, {"molecule": "Cc1ccccc1NC(=O)c1ccc2[nH]c(C)c(C)c2c1", "Potency": "inconclusive [inhibitor, single point]"}, {"molecule": "CCC(C)NC(=O)CSc1nnc(-c2ccc(C(C)(C)C)cc2)n1C", "note": "(stereo not drawn)", "Potency": "inconclusive [inhibitor, partial curve]"}, {"molecule": "O=C(NC1CCCC1)c1nc(-c2ccco2)oc1-c1ccccc1", "Potency": "inconclusive [inhibitor, single point]"}, {"molecule": "C/C(Nc1ccc(Cl)c(Cl)c1)=C1/CCOC1=O", "Potency": "inconclusive [inhibitor, single point]"}, {"molecule": "CCC1CN(S(=O)(=O)c2cc(-c3cc(C)no3)ccc2C)c2cc(Cl)ccc2O1", "note": "(stereo not drawn)", "Potency": "active: 23.1 µM"}]}]}
